Experimental findings from ChEMBL document CHEMBL5308541, “MAIP: An Open-Source Tool to Enrich High-Throughput Screening Output and Identify Novel, Druglike Molecules with Antimalarial Activity” (ACS Med Chem Lett, 2023) are described below.

The whole screen tested about 150,000 compounds, of which about 540 (0.36%) showed an effect of 50% or more. The list shows a part of the results.

The test deals with Plasmodium falciparum. The experiment in a line: Primary screen in NF54 nanoGlo assay, in single point, at 2uM, 72h; a lower Z score goes with more inhibition. The test is classed as functional, Erythrocyte. The settings on record: timepoint 72 hour.
For `CN1CCN(CC2CCN(C(=O)CC3CC(C)(C)NC(C)(C)C3)CC2)CC1`, the “% Inhibition” value came to 2% and the Z score is recorded as -0.48.
In the case of `O=C(n1nnc2cc(Cl)c(Cl)cc21)C(F)(F)F`, the “% Inhibition” value is listed as 29% and the Z score is -5.11.
In the same order, the values of `C[C@@H](C(=O)N1CCC(C2(O)CC2)CC1)N1C(=O)c2cccc3cccc1c23` are -4% and 0.62.
In the same order, the values of `CCc1csc([C@H]2CCCN(c3snc(C)c3C#N)C2)n1` are -7% and 1.08.
In the same order, the values of `COc1ccc2oc(N[C@@H]3CCN(C(=O)c4onc5c4CCCC5)C3)nc2c1` are -3% and 0.53.
On to `OCc1ccc(-c2c(-c3ccccc3)ncn2Cc2cccc3[nH]ccc23)o1`, for which the “% Inhibition” value amounted to 3% and the Z score is -0.48.
For the compound `CC(C)[C@@H](C#N)N1CCN(C(=O)CN2CCC(CN3CCCC3)CC2)CC1`, the “% Inhibition” value is -2% and the Z score is reported as 0.43.
In the case of `CN1CCN(c2cc(C(=O)NC[C@H]3CCCN3Cc3ccccc3)ccn2)CC1`, the “% Inhibition” value is given as 0% and the Z score came out at 0.05.
On to `Cc1nc(-c2ccncc2)nc(N[C@H]2CCCN(C(=O)N3CCCC3)C2)c1C`, for which the “% Inhibition” value is on record as 4% and the Z score is reported as -0.62.
As to `CN1CCC(CN2CCN(C(=O)Nc3ccc4ncccc4c3)CC2)CC1`, the “% Inhibition” value was -4% and the Z score is 0.75.
For the compound `CC1CCN(C[C@H]2CCCN(C(=O)c3cccc(-c4noc(C(F)(F)F)n4)c3)C2)CC1`, the “% Inhibition” value came to 14% and the Z score is given as -3.
Turning to `C[C@H](Nc1nc(N)c2ccccc2n1)c1cccc(-n2cncn2)c1`, the “% Inhibition” value turned out to be 26% and the Z score is -4.57.
In the same order, the values of `c1ccc(Nc2ncc(-c3nc(CN4CCOCC4)no3)cn2)cc1` are -7% and 1.07.
In the case of `Cc1csc(N2CCN(c3ncnc4[nH]ccc34)C[C@@H]2C)n1`, the “% Inhibition” value is -15% and the Z score is reported as 2.55.
For `Cc1cc2occ(C(=O)Nc3cccnc3N3CCC(CO)CC3)c2cc1C`, the “% Inhibition” value was -6% and the Z score was 0.96.
Consider `Cc1nc(-c2ccccc2)sc1[C@H](C)N(C)Cc1ccon1`, for which the “% Inhibition” value was -10% and the Z score amounted to 2.14.
The matching figures for `Cc1ccc(Nc2nc(NCCO)nc3[nH]nnc23)cc1`: 2% and -0.37.
On to `CN(CC1CCN(CCc2cccc(F)c2)CC1)C(=O)c1cnc2ccccc2c1`, for which the “% Inhibition” value was -7% and the Z score came out at 1.28.
For `c1ccc(OC2COCCC2NC2CCN(C3CCCC3)CC2)nc1` (stereo unspecified), the “% Inhibition” value is on record as 1% and the Z score was -0.19.
Take `CC(C)c1ccc2cc(C(=O)NCCN3CCS(=O)(=O)CC3)[nH]c2c1`: the “% Inhibition” value is 3% and the Z score is -0.46.
Consider `C[C@H]1CCCCN1C1CN(C(=O)c2cccc(-c3cccc(O)n3)c2)C1`, for which the “% Inhibition” value is recorded as -9% and the Z score is 1.48.
For the compound `CCc1cc(NC(=O)c2cccc(NC(C)=O)c2C)n(C)n1`, the “% Inhibition” value was -15% and the Z score was 2.3.
For the compound `Cn1ncc2c(N)nc(N3CCO[C@@H](Cc4ccccc4)C3)nc21`, the “% Inhibition” value was -4% and the Z score stood at 0.62.
As to `N#Cc1c(-c2cnc(N3CCCCC3)nc2)cc(-c2ccc[nH]2)nc1N`, the “% Inhibition” value was -17% and the Z score is 2.63.
Regarding `CN1CCC[C@@H]1CCNc1ncnc2cccc(F)c12`, the “% Inhibition” value amounted to 9% and the Z score was -1.43.
With `O[C@H]1CCN(C2CCN(c3nc4cnccc4s3)CC2)C1`, the “% Inhibition” value is reported as -3% and the Z score is listed as 0.49.
In the case of `O=C(Cc1cc(Cl)ccc1Cl)NC1(CO)Cc2ccccc2C1`, the “% Inhibition” value is reported as -3% and the Z score is reported as 0.46.
Regarding `O=C(Nc1ccccc1OCCN1CCNCC1)N1C2CCC1CC1(CC1)C2`, the “% Inhibition” value amounted to 5% and the Z score is -1.01.
For `c1ncc(-c2ccc(N[C@@H]3CNCC4(CCOCC4)C3)cc2)o1`, the “% Inhibition” value is -5% and the Z score was 0.71.
As to `Cc1nccc(-c2cccc(NCc3ncc(-c4cccc(Cl)c4)o3)c2)n1`, the “% Inhibition” value is given as -1% and the Z score turned out to be 0.25.
For the compound `c1ccc(-c2cc(OCC3CCN(c4nccn5nccc45)CC3)ncn2)cc1`, the “% Inhibition” value was -1% and the Z score came out at 0.16.
Turning to `O=C(Cn1cnc(C2CC2)cc1=O)N1CC(n2c(C3CC3)nc3ccccc32)C1`, the “% Inhibition” value is -5% and the Z score amounted to 0.77.
Take `CN(C)S(=O)(=O)N1CCC(CNc2ncnc3ccc(Cl)cc23)CC1`: the “% Inhibition” value is recorded as -2% and the Z score was found to be 0.24.
In the same order, the values of `COc1ccc2c(CC(=O)N(C)C3CC4CCC(C3)N4C(=O)OC(C)(C)C)coc2c1` (stereo unspecified) are 1% and -0.24.
In the same order, the values of `Cc1ccc(Nc2ncc(-c3ccc(Cl)c(OC(F)(F)F)c3)cn2)cc1` are -5% and 1.
The matching figures for `CC(C)N1C(=O)C[C@H](NC(=O)c2nn(-c3ccccc3)c3c2CCCCC3)C1=O`: -2% and 0.35.
In the case of `Nc1nc(N[C@H]2CCN(CC(F)(F)F)C2)nc2ccccc12`, the “% Inhibition” value is -3% and the Z score is reported as 0.48.
With `Cn1ccnc(NC[C@H]2CN(c3ncnc4[nH]ncc34)CCO2)c1=O`, the “% Inhibition” value is -4% and the Z score stood at 0.91.
Consider `COc1cccc([C@@H](Nc2ncc(Br)cn2)C(C)(C)C)c1`, for which the “% Inhibition” value is on record as -9% and the Z score came out at 1.51.
Consider `N#Cc1cc2c(nc1NS(=O)(=O)Cc1cccc(C(F)(F)F)c1)CCCC2`, for which the “% Inhibition” value is reported as -6% and the Z score came out at 1.03.
`Cc1cc(CN2CCN(Cc3cccc(-c4ccncc4)c3)CC2)no1`: the “% Inhibition” value is listed as -3% and the Z score was 0.74.
On to `CCN(C)c1cc(NCCCN2CCC(C(N)=O)CC2)ncn1`, for which the “% Inhibition” value is -10% and the Z score turned out to be 1.55.
Take `CC(C)(C)c1ccc(Cn2cc(-c3cnn(Cc4ccc(C(C)(C)C)cc4)c3)cn2)cc1`: the “% Inhibition” value is -3% and the Z score is 0.7.
On to `COCCCCN1CCN(c2nccc(N3CC[C@H](O)C3)n2)CC1`, for which the “% Inhibition” value is 1% and the Z score is listed as -0.17.
As for `Cc1cc(-n2ccnc2)ccc1CN1CCC(N2CCO[C@@H](C)C2)CC1`, the “% Inhibition” value is listed as 2% and the Z score is given as -0.28.
On to `O[C@@H]1C[C@H]2CN(c3ncnc4[nH]ccc34)Cc3cccnc3N2C1`, for which the “% Inhibition” value is listed as -3% and the Z score is 0.49.
For the compound `Cc1csc(NC2CCN(C(=O)[C@@H]3COCCN3CC3CCC3)CC2)n1`, the “% Inhibition” value was -15% and the Z score is on record as 2.74.
In the same order, the values of `CC(C)N1CCN(C2CCN(C(=O)c3cccc(-c4ncn[nH]4)c3)CC2)CC1` are -2% and 0.32.
The matching figures for `C1Cc2nc(C3CC3)nc(NC3COCC3N3CCOCC3)c2CCN1` (stereo unspecified): 1% and -0.19.
Consider `C[C@@H](c1ccc(-c2c[nH]nc2-c2ccncc2)cc1)N1CCCC1`, for which the “% Inhibition” value is -10% and the Z score is given as 1.5.
`CC(NC1CCCN(c2cc(N3CCOCC3)ncn2)C1)C1CC(F)(F)C1` (stereo unspecified): the “% Inhibition” value was -1% and the Z score was 0.22.
In the same order, the values of `Cc1cccc2c(CCNc3nc(N)nc4c3CCNCC4)c[nH]c12` are 10% and -1.78.
For `Cc1ccc2cccc(OCCNc3nc(N)nc4c3CCNC4)c2n1`, the “% Inhibition” value was 3% and the Z score is recorded as -0.52.
`CCc1cc(NCc2ccnc(NC3CC3)c2)nc(-c2ccncc2)n1`: the “% Inhibition” value is on record as -1% and the Z score was 0.17.
Turning to `O=C(Nc1cc(N2CCNCC2)ccn1)[C@H]1CCCC2(CC2)C1`, the “% Inhibition” value came to 0% and the Z score is -0.04.
Turning to `CCCCc1c(C)nc(N)nc1NCc1nc(C)cc(C)n1`, the “% Inhibition” value is listed as -4% and the Z score is 0.88.
With `O=C(C[C@H]1CCCC[C@@H]1O)Nc1cccc(Cl)c1O`, the “% Inhibition” value is recorded as 7% and the Z score is -1.
Turning to `Cc1cc(=O)[nH]c2ccc(-c3cc(N)nc4[nH]ccc34)cc12`, the “% Inhibition” value is -4% and the Z score was found to be 0.73.
On to `CCOc1cccc(N2CCN(CC[C@H]3CCCN3C)CC2)n1`, for which the “% Inhibition” value is reported as -4% and the Z score is 0.74.
As for `O[C@@H]1CC(c2nnc[nH]2)C[C@@H]1CNc1cnc2cc(F)c(F)cc2n1` (stereo partly specified), the “% Inhibition” value is on record as -11% and the Z score is 2.33.
In the same order, the values of `CNC(=O)c1cc(Oc2cc(C)ccc2NC(=O)c2cccc3[nH]c(C(F)F)nc23)ccn1` are 9% and -1.84.
Take `CN1CCN(C2(CNC(=O)Nc3cccc(-c4ccco4)c3)CCCC2)CC1`: the “% Inhibition” value is given as -4% and the Z score was determined as 0.66.
On to `C[C@@H](CCNC(=O)c1cccc(Cn2c(=O)c3cccn3c3cccnc32)c1)N1CCCCCC1`, for which the “% Inhibition” value is on record as -11% and the Z score was 1.91.
The matching figures for `Cc1ccnc(NC[C@]2(O)CCCNCC2)n1`: 0% and -0.04.
Turning to `N#Cc1ccc(NC[C@H](O)c2ccc(OC(F)(F)F)cc2)nc1`, the “% Inhibition” value is -3% and the Z score amounted to 0.47.
The matching figures for `O=C(NCc1cccnc1)c1ccc(N2CCC(NCCc3nc(-c4ccccc4)cs3)CC2)cc1`: -5% and 0.86.
Consider `CN(C)CCCN(CCCn1cccn1)CC1CCN(C2Cc3ccccc3C2)CC1`, for which the “% Inhibition” value worked out at 16% and the Z score is -2.76.
Regarding `CNc1cc(C)nc2cc(OC)ccc12`, the “% Inhibition” value is reported as -6% and the Z score amounted to 0.97.
With `COc1ccc(CNCC2CCN(C(C)C)CC2)cc1OC[C@@H](O)CN1CCN(C)CC1`, the “% Inhibition” value is reported as -4% and the Z score stood at 0.62.
Turning to `COc1cccc(OC)c1CN1CCOC(CO)C1c1ccccc1` (stereo unspecified), the “% Inhibition” value came out at 0% and the Z score was determined as 0.04.
With `CNc1nc(C)cc(NCCc2nc3c(s2)CCCC3)n1`, the “% Inhibition” value was -2% and the Z score is listed as 0.29.
Turning to `c1cnnc(N2CCC(Nc3nc(C4CC4)nc4[nH]ccc34)CC2)c1`, the “% Inhibition” value is -12% and the Z score was 2.05.
For `Clc1ccc(NCCCN2CCCC2)cc1`, the “% Inhibition” value is recorded as 0% and the Z score is -0.07.
For `CCc1nc(C)c(CNC(=O)c2ccc3oc(C)cc3c2)s1`, the “% Inhibition” value is on record as -4% and the Z score was 0.76.
For the compound `O=C(C1CCN(C2CCN(Cc3nc4ccccc4[nH]3)CC2)CC1)N1CCCC1`, the “% Inhibition” value is -3% and the Z score amounted to 0.5.
With `Cc1ccc2[nH]c3c(c2c1)CN(C(=O)NCCN1CCC(N(C)C)CC1)CC3`, the “% Inhibition” value amounted to 18% and the Z score was -3.63.
Take `CN(C)Cc1ccc([C@@H]2CCCN2c2cc(N3CCCCC3)ncn2)cc1`: the “% Inhibition” value is listed as -9% and the Z score is on record as 1.58.
For `CC1(C)CCCN(CCNC(=O)c2ccc3c(c2)C(=O)NCCO3)C1`, the “% Inhibition” value was -4% and the Z score worked out at 0.91.
The matching figures for `Cn1cc(-c2nc(-c3nc([C@H]4CN5CCCCC5CO4)no3)cs2)cn1` (stereo partly specified): -23% and 4.1.
Regarding `Cn1cncc1C(=O)NC1CCC(Nc2nccc(-c3ccccn3)n2)C1` (stereo unspecified), the “% Inhibition” value was -17% and the Z score was 2.9.
With `COc1ccc2oc([C@H](C)NC(=O)c3nnc4ccccc4c3O)c(C)c2c1`, the “% Inhibition” value is recorded as -1% and the Z score stood at 0.12.
Regarding `CN(C)CCN1CCCNc2ccccc21`, the “% Inhibition” value is -1% and the Z score is reported as 0.11.
Take `CCN1CCN(CCCNc2nc(C)ncc2Cl)CC1`: the “% Inhibition” value is listed as -15% and the Z score came out at 2.6.

By % Inhibition is commonly meant the relative decrease from the control value, in per cent.
